Here are results for 30 molecules from PubChem BioAssay AID1362 (SRMLSC, 2008).

Structures are written as SMILES. Some of the results follow. These are further read-outs of the screen, such as a control signal, another cell line or another target. No call is given for them. Most of these compounds were active or inconclusive in the main read-out, so they are no random draw.

The assay can be described thus: growth inhibition of WT strain, primary screen, mitochondrial fusion inhibitor project, WT and mutant strains, chemical genetic (AID 1362). Also: tested in S. cerevisiae. Particulars: mitochondrial fusion phenotypic screen, at 10 µM.
For `Oc1ccc2ccccc2c1/C=N/c1nc2c(s1)CCCC2`, the inhibition came out at 3.62%.

For `Cc1ccsc1C(=O)NCCC(c1ccccc1)c1ccccc1`, the inhibition amounted to 45.2%.

Regarding `Cc1ccccc1NC(=S)N(Cc1ccccn1)Cc1ccccc1Cl`, the inhibition was determined as 52.1%.

As to `CCOc1ccc(C(c2c(NC(=O)c3ccccc3)sc(C)c2C)N2CCN(CCO)CC2)cc1` (stereo not given), the inhibition came to 36%.

In the case of `O=C(NC1CCCCC1)c1sc(=S)n2c1[nH]c(=O)c1ccccc12`, the inhibition stood at 35.7%.

As to `CCc1nn2cc(C(=O)c3cc(Cl)ccc3O)cnc2c1-c1ccc(F)cc1`, the inhibition was 69.3%.

Consider `CC(=O)OCC(=O)N1N=C(c2ccc3ccccc3c2)CC1c1ccccc1` (stereo not given), for which the inhibition turned out to be 38.5%.

Take `CC(NC(=O)CSc1nc(=O)cc(N)n1CCc1ccccc1)c1ccccc1` (stereo not given): the inhibition came out at 12.7%.

With `CC(C)(C)c1ccc(-c2nnc(SCCC#N)n2C2CCCC2)cc1`, the inhibition came to 19.6%.

On to `CCn1c(CCCOc2ccc(Cl)cc2Cl)nnc1SCC(=O)Nc1cc(F)ccc1C`, for which the inhibition is 23%.

In the case of `CCOc1ccc(NC(=O)C2CC(=O)N(C(C)C)C2)cc1` (stereo not given), the inhibition was determined as 3.31%.

In the case of `O=C1Nc2ccc(Cl)cc2[C@@](C#CC2CC2)(C(F)(F)F)O1`, the inhibition is 46.7%.

Take `Cc1cc(C)c2sc(N(CCCN(C)C)C(=O)COc3ccc(Cl)cc3)nc2c1`: the inhibition worked out at 86.7%.

Regarding `FC(F)C(F)(F)C(F)(F)C(F)(F)c1cc(-c2ccccc2)n[nH]1`, the inhibition stood at 42.5%.

`COc1cccc(N2C(=O)C(c3ccccc3)=C(c3nc4ccccc4s3)C2NC(C)=O)c1` (stereo not given): the inhibition worked out at 6.32%.

`C/C(=N\Nc1ccc(Cl)c(Cl)c1)c1ccc(-n2ccnc2)cc1`: the inhibition was 65.7%.

Take `CN1C(=S)SC(C)(C)C1(C)NO` (stereo not given): the inhibition was 6.85%.

For `O=C1c2ccccc2C(Nc2ccc(Cl)cn2)N1Cc1ccccc1` (stereo not given), the inhibition is 59.1%.

With `Cc1ccc([N+](=O)[O-])cc1NC(=S)NC(=O)CC(C)(C)C`, the inhibition worked out at 38.3%.

For the molecule `COc1ccc(/C=N/Nc2nc(-c3ccc(Cl)cc3)cc(C(F)(F)F)n2)cc1OC`, the inhibition came out at 45.6%.

In the case of `Cc1[nH]c2ccccc2c1/C=C(\C#N)C(=O)NC(C)c1ccccc1` (stereo not given), the inhibition stood at 7.25%.

As for `COc1cccc(-c2cc3nc(-c4ccccc4)cc(N4CCCC(O)C4)n3n2)c1` (stereo not given), the inhibition came out at 28.9%.

In the case of `CC(=O)Nc1ccc(C(=O)OCc2ccccc2Br)cc1`, the inhibition amounted to 52.2%.

On to `COC(=O)C1C(=O)NCC1c1ccccc1` (stereo not given), for which the inhibition was determined as 16.2%.

On to `FC(F)Oc1ccc(NC(=S)NCc2ccccc2)cc1Cl`, for which the inhibition was 36.8%.

Consider `Cc1ccc(C)c(N2CCN(C(=O)c3ccccc3Br)CC2)c1`, for which the inhibition was 34.7%.

Turning to `COc1cccc(-c2ccc(C#N)c(OC(=O)c3c(Cl)cccc3Cl)n2)c1`, the inhibition was -3.87%.

`CCOc1ccccc1N1CCN(C(=O)c2ccc3[nH]c4c(c3c2)CCCC4)CC1`: the inhibition was -1.5%.

Turning to `CC1CCN(C(=S)c2cn(Cc3cccc(F)c3)c3ccccc23)CC1`, the inhibition turned out to be 47.6%.

Take `S=C(NCCSCc1ccc(Cl)cc1Cl)Nc1ccccc1`: the inhibition stood at 52.5%.

Usually inhibition stands for the change of the read-out against control, counted positive when it falls.
